{"source": "the supplement of paper PMC8728848", "test_in_all_cases": "glycan array binding signal (z-score within array); higher = stronger binding", "settings_in_all_cases": "glycan notation: IUPAC condensed, linker removed", "key": {"[1]": {"target": "GlcNAc(b1-2)Gal(b1-3)GalNAc", "outline": "(§1)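 Columns mapping to the same glycan were averaged after glycan names were converted to IUPAC-condensed notation. The data come from 3228 arrays in the Consortium for Functional Glycomics database, limited to those with an available protein sequence. Binding is reported as a within-array Z-score averaged across arrays of one protein sequence and across linkers.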"}, "[2]": {"target": "GlcNAc(b1-2)Man(a1-3)[GlcNAc(b1-2)Man(a1-6)]Man(b1-4)GlcNAc(b1-4)GlcNAc", "outline": "as §1"}, "[3]": {"target": "GlcNAc(b1-2)Man(a1-3)[GlcNAc(b1-2)Man(a1-6)]Man(b1-4)GlcNAc(b1-4)[Fuc(a1-6)]GlcNAc", "outline": "as §1"}, "[4]": {"target": "GlcNAc(b1-2)Man(a1-3)[GlcNAc(b1-4)][GlcNAc(b1-2)Man(a1-6)]Man(b1-4)GlcNAc(b1-4)GlcNAc", "outline": "as §1"}, "[5]": {"target": "GlcNAc(b1-2)Man(a1-3)[GlcNAc(b1-4)][GlcNAc(b1-2)Man(a1-6)]Man(b1-4)GlcNAc(b1-4)[Fuc(a1-6)]GlcNAc", "outline": "as §1"}, "[6]": {"target": "GlcNAc(b1-2)[GlcNAc(b1-4)]Man(a1-3)[GlcNAc(b1-2)Man(a1-6)]Man(b1-4)GlcNAc(b1-4)GlcNAc", "outline": "as §1"}, "[7]": {"target": "GlcNAc(b1-2)[GlcNAc(b1-4)]Man(a1-3)[GlcNAc(b1-4)][GlcNAc(b1-2)Man(a1-6)]Man(b1-4)GlcNAc(b1-4)GlcNAc", "outline": "as §1"}, "[8]": {"target": "GlcNAc(b1-2)[GlcNAc(b1-4)]Man(a1-3)[GlcNAc(b1-4)][GlcNAc(b1-2)[GlcNAc(b1-6)]Man(a1-6)]Man(b1-4)GlcNAc(b1-4)GlcNAc", "outline": "as §1"}, "[9]": {"target": "GlcNAc(b1-2)[GlcNAc(b1-4)]Man(a1-3)[GlcNAc(b1-4)][GlcNAc(b1-2)[GlcNAc(b1-6)]Man(a1-6)]Man(b1-4)GlcNAc(b1-4)[Fuc(a1-6)]GlcNAc", "outline": "as §1"}, "[10]": {"target": "GlcNAc(b1-2)[GlcNAc(b1-6)]Man(a1-6)[GlcNAc(b1-2)Man(a1-3)]Man(b1-4)GlcNAc(b1-4)GlcNAc", "outline": "as §1"}, "[11]": {"target": "GlcNAc(b1-2)[GlcNAc(b1-6)]Man(a1-6)[GlcNAc(b1-2)Man(a1-3)]Man(b1-4)GlcNAc(b1-4)[Fuc(a1-6)]GlcNAc", "outline": "as §1"}, "[12]": {"target": "GlcNAc(b1-2)[GlcNAc(b1-6)]Man(a1-6)[GlcNAc(b1-4)][GlcNAc(b1-2)Man(a1-3)]Man(b1-4)GlcNAc(b1-4)GlcNAc", "outline": "as §1"}, "GlcNAc(b1-3)Fuc": {"target": "GlcNAc(b1-3)Fuc", "outline": "as §1"}, "GlcNAc(b1-3)Gal": {"target": "GlcNAc(b1-3)Gal", "outline": "as §1"}, "[13]": {"target": "GlcNAc(b1-3)Gal(b1-3)GalNAc", "outline": "as §1"}, "GlcNAc(b1-3)Gal(b1-4)Glc": {"target": "GlcNAc(b1-3)Gal(b1-4)Glc", "outline": "as §1"}, "[14]": {"target": "GlcNAc(b1-3)Gal(b1-4)GlcNAc", "outline": "as §1"}, "[15]": {"target": "GlcNAc(b1-3)Gal(b1-4)GlcNAc(b1-2)Man(a1-3)[GlcNAc(b1-3)Gal(b1-4)GlcNAc(b1-2)Man(a1-6)]Man(b1-4)GlcNAc(b1-4)GlcNAc", "outline": "as §1"}}, "note": "The list shows a part of the results.", "data": [{"binder": "OGAN (protein) MVQKESQATLEERESELSSNPAASAGASLEPPAAPAPGEDNPAGAGGAAVAGAAGGARRFLCGVVEGFYGRPWVMEQRKELFRRLQKWELNTYLYAPKDDYKHRMFWREMYSVEEAEQLMTLISAAREYEIEFIYAISPGLDITFSNPKEVSTLKRKLDQVSQFGCRSFALLFNDIDHNMCAADKEVFSSFAHAQVSITNEIYQYLGEPETFLFCPTEYCGTFCYPNVSQSPYLRTVGEKLLPGIEVLWTGPKVVSKEIPVESIEEVSKIIKRAPVIWDNIHANDYDQKRLFLGPYKGRSTELIPRLKGVLTNPNCEFEANYVAIHTLATWYKSNMNGVRKDVVMTDSEDSTVSIQIKLENEGSDEDIETDVLYSPQMALKLALTEWLQEFGVPHQY", "values": [{"measurement": "glycan array binding signal (z-score)", "setting": "[1]", "value": -0.088}, {"measurement": "glycan array binding signal (z-score)", "setting": "[2]", "value": -0.037}, {"measurement": "glycan array binding signal (z-score)", "setting": "[3]", "value": -0.046}, {"measurement": "glycan array binding signal (z-score)", "setting": "[4]", "value": -0.056}, {"measurement": "glycan array binding signal (z-score)", "setting": "[5]", "value": -0.074}, {"measurement": "glycan array binding signal (z-score)", "setting": "[6]", "value": -0.013}, {"measurement": "glycan array binding signal (z-score)", "setting": "[7]", "value": -0.08}, {"measurement": "glycan array binding signal (z-score)", "setting": "[8]", "value": -0.049}, {"measurement": "glycan array binding signal (z-score)", "setting": "[9]", "value": -0.072}, {"measurement": "glycan array binding signal (z-score)", "setting": "[10]", "value": -0.089}, {"measurement": "glycan array binding signal (z-score)", "setting": "[11]", "value": -0.052}, {"measurement": "glycan array binding signal (z-score)", "setting": "[12]", "value": -0.067}, {"measurement": "glycan array binding signal (z-score)", "setting": "GlcNAc(b1-3)Fuc", "value": -0.056}, {"measurement": "glycan array binding signal (z-score)", "setting": "GlcNAc(b1-3)Gal", "value": -0.081}, {"measurement": "glycan array binding signal (z-score)", "setting": "[13]", "value": -0.035}, {"measurement": "glycan array binding signal (z-score)", "setting": "GlcNAc(b1-3)Gal(b1-4)Glc", "value": -0.043}, {"measurement": "glycan array binding signal (z-score)", "setting": "[14]", "value": -0.063}, {"measurement": "glycan array binding signal (z-score)", "setting": "[15]", "value": -0.058}]}]}
